In all, about 150,000 compounds went through this assay and about 540 (0.36%) showed an effect of 50% or more. The list shows a part of the results.
test system: Plasmodium falciparum; test: Primary screen in NF54 nanoGlo assay, in single point, at 2uM, 72h; a lower Z score goes with more inhibition; format: functional, Erythrocyte; conditions: timepoint 72 hour

Compound	% Inhibition [%]	Z score
Cc1ccc(C#N)nc1N1CCCO[C@@H](C)C1	-10	1.17
NC(=O)c1cnc(NC(=O)c2ncccc2Oc2ccccc2)s1	-36	4.22
CN1Cc2ccccc2S(=O)(=O)NC1=O	-5	0.97
O=C(NC1(c2ncon2)CCC1)c1ccccc1O	-20	2.54
CCCc1nc(N(C)C[C@H]2CCCN2C)no1	-9	1.16
COCCn1cc(C2C(C(=O)Nc3nc(COC)cs3)CC(=O)N2C(C)(C)C)cn1 (stereo not drawn)	8	-1.11
C[C@@H](NC(=O)c1ccc(F)cc1)c1onc(-c2ccccc2)c1C(=O)O	-10	1.3
CC(C)n1nc(C(=O)NCCCOC2CCN(Cc3ccccc3)CC2)c2c1CCOC2	-13	1.67
O[C@H]1Cc2ccccc2[C@H]1Nc1nc(-c2ccccn2)nc2c1CCNC2	29	-2.29
CCc1nc(C)sc1C(=O)Nc1nc(C(=O)OC)c(CCc2ccccc2)s1	9	-1.38
Cc1cc(C)n(-c2ccc(N3CCC(Nc4c(C)noc4C)CC3)cc2)n1	-4	0.78
CCNC(=O)N1CCc2nc(N(C)C3CCCCC3)nc(N3CCOCC3)c2C1	-12	1.15
COc1cccn(CC(=O)N2C[C@H]3CC[C@@H](C2)[C@H]3OC)c1=O	-3	0.32
Cc1ccc(N2C[C@@H](C(=O)Nc3c(C)n(C)n(-c4ccccc4)c3=O)CC2=O)cc1	-3	0.48
CCCN(C(=O)c1cccs1)C1CCN(C(=O)c2ccc(COC)cc2)CC1	-4	0.48
Cc1ccsc1-c1nnc(CC(=O)NCc2ccncc2)o1	-9	1.5
CCn1ccc(C(=O)Nc2cccc(-c3nc4ccccc4s3)c2)n1	-15	2.59
COc1cccc(-c2csc(-c3nc(-c4ccc(C)cc4)c(C)s3)n2)c1	-2	0.21
CCCCn1nc(C(C)C)nc1-c1scnc1C	-16	1.63
O=C(CC[C@H]1CCCN(C(=O)c2cn3ccccc3n2)C1)N1CCN(c2ccccn2)CC1	-7	1.26
CCC(=O)N1CCN(C(=O)C2(O)CCCCC2)C1	-11	2.22

Compound	% Inhibition [%]	Z score
CC(C)(C)OC(=O)N[C@H](C(N)=O)C1CCCCC1	-21	2.1
Cn1nc(CN2CCOCC2)c2c1CCN(S(=O)(=O)c1cccc3cccnc13)C2	-14	1.53
Cc1nc2ncnn2c(N2CCN(CC(C)C)C(=O)C2)c1C	19	-2.76
Cc1cc2c(cc1CNC(=O)c1ccccc1F)OCCCO2	-11	1.61
O=C(NCc1ccncc1)C1C2C(=O)N(C3CCCC3)C[C@]23C=C[C@H]1O3 (stereo partly drawn)	-14	1.77
O[C@H]1[C@H](NCc2nccs2)[C@H]2CO[C@H](O2)[C@@H]1n1ccnc1	32	-3.6
CC(C)(C)NC(=O)CNC(=O)C1CCCCC1	-3	0.46
C[C@H](Nc1ccc(Cl)cc1Cl)C(=O)N1CCC2(CCC2)C1	2	-0.21
C#CCCNC(=O)NCc1snc(OC)c1Br	-6	0.96
O=C(Nc1ccc(-c2nc(-c3ccccc3)c3cc(NC(=O)c4cccs4)ccc3n2)cc1)c1cccs1	-3	0.67
CC(C)c1nc(CCNC(=O)c2cccc(-c3ncnn3C(C)C)c2)no1	-12	2.05
Cc1ccc(C(=O)N(CC(=O)N2CCc3sccc3C2COc2ccc(C)cc2C)CC2CCCO2)cc1 (stereo not drawn)	-8	1.35
COCc1nc(-c2ccc(-n3ccnc3)cc2)n(CCO)n1	-9	1.43
NC(=O)c1cc([C@H]2CCCN(Cc3nnnn3C3CC3)C2)n[nH]1	-13	1.29
CCCN1CCN(c2ccc(NC(=O)Cn3nc4ccccn4c3=O)c(OCC)c2)CC1	-10	1.88
C[C@@H](C(=O)Nc1nncs1)N1CCCCCCC1	-3	0.45
COCCN1C[C@]2(CCCN(c3ccc(C#N)cn3)C2)CCC1=O	6	-1.2
Cc1nccn1CCNC(=O)c1cnn2ccn(C)c12	0	0.06
CC(=O)Nc1ccc(S(=O)(=O)Nc2nnc(Cc3ccc(Cl)cc3)s2)cc1	-9	1.65
O=C(Nc1c2c(nc3ccccc13)CCCC2)c1ccccc1Br	-14	1.83
Cc1cc([C@H](C(=O)O)N(C)CCCCN2CCOCC2)ccc1F	-17	2.33

Compound	% Inhibition [%]	Z score
CCN1CCN(C(=O)C[C@H](c2cccc(C(F)(F)F)c2)c2c[nH]c3ccc(OC)cc23)CC1	2	-0.3
CCOc1ccc(-c2cc(C(=O)NCCc3ccc(OC)c(OC)c3)c3c(-c4ccc(F)cc4)[nH]nc3n2)cc1	-19	1.76
Cc1ccc(-n2ncc3c2CC(C)(C)C[C@@H]3NS(=O)(=O)c2cccnc2)cc1	-15	1.84
CC(C)N(CC(=O)N1c2ccccc2-n2cccc2[C@H]1c1ccc(F)cc1)C(=O)c1ccc(Cl)cc1Cl	-9	1.24
CCN(C[C@@H](C)O)C(=O)c1ncccc1-n1ncc2ccccc21	-7	1.38
Cc1cc(C)cc(CCC(=O)Nc2c(C)noc2C2CC2)c1	2	-0.28
Cc1noc(C)c1N(C)CC(=O)NCC(C)C	27	-3.01
COc1ccc(Nc2nc(C(=O)Nc3ncc(C)s3)cs2)cc1OC	30	-1.16
CCn1nc(C)c(CN[C@@H]2COC(C)(C)C2)n1	-2	0.22
CN(Cc1c[nH]nc1-c1c(F)cccc1F)CC1CCOCC1	3	-0.36
c1ccc2c(-c3noc4c3CN(CCN3CCOCC3)CC4)cccc2c1	4	-0.54
O=S(=O)(c1ccc(F)cc1)N1CCc2nc(N3CCCC3)nc(Oc3ccc(F)cc3)c2C1	-6	0.75
CCC(N[C@H](C)CO)c1cccc(Cl)c1F (stereo partly drawn)	-9	1.73
CCN(CC)C(=O)N(C)c1ccc2ccccc2n1	-12	1.21
O=C(NCc1cccnc1)[C@@H]1C[C@@H](O)CN1C1CCN(C(=O)c2cc3ccccc3[nH]2)CC1	2	-0.22
CCN(C(=O)c1cn(CCC(C)C)nn1)c1ccccc1Cl	-1	0.1
O=C(CCc1nc2ccccc2[nH]1)N1CC[C@H](Cc2ccc(CO)cc2)C1	-8	1.55
NC(=NOCC(=O)N1CCCc2ccccc21)c1ccccc1	-1	0.11
Cc1nn(C)c2ncnc(N3CC(C)(C)N(C)C[C@@H]3C)c12	0	0.03
CCC[C@H]1CN(C(=O)Cc2ccncc2)C[C@@H]1NC(C)=O	-3	0.45
O=C(NC1CCC(O)CC1)C(F)(F)F (stereo not drawn)	-6	1.08

Compound	% Inhibition [%]	Z score
CCOC(=O)c1nnsc1Nc1ccc(N)cc1	7	-0.91
CN(C)[C@H]1[C@H](NC(=O)CCc2cccnc2)[C@@H]2CCO[C@@H]21	-8	1.46
CC1=CC(=C2CC(C)(C)N=C2C)C=C(C)C12CC(C)(C)N=C2C (stereo not drawn)	6	-0.73
CC(C)n1cc(C(=O)N2CCC(O)(Cc3cccc(F)c3)CC2)cn1	-13	1.48
CCC(CC)CN(CC)C(=O)Cc1ccn(CC(F)(F)F)n1	-9	1.11
O=C(N[C@H]1CCc2nccn2C1)C1(c2cccs2)CCCCC1	-4	0.8
CC(C)(C)c1nnn(CC(=O)Nc2ccnn2C2CCCCC2)n1	-6	0.8
O=C(Nc1c2c(nc3ccccc13)CCCC2)c1cccc(Cl)c1	-9	1.13
C[C@H](NC(=O)NCCCN(C)c1ccccc1)[C@H](O)c1ccc(O)cc1	-14	2.57
CS(=O)(=O)NCc1ncnn1-c1cccc2c1CCC2	-16	1.93
Cc1ccc(S(=O)(=O)OCC2CCN(C(=O)OC(C)(C)C)CC2)cc1	-6	0.69
CC12CCC(C(=O)Nc3ccc4c(c3)OCCO4)(C(=O)C1=O)C2(C)C (stereo not drawn)	8	-1.1
O=C1NC(c2ccc(-c3cccc(Cl)c3)o2)C(C(=O)c2ccc(F)cc2)C(O)(C(F)(F)F)N1 (stereo not drawn)	-12	2.31
CCCCN1CCN(C[C@H]2COc3ccccc3O2)CC1	-5	1.04
COc1ccc(Cn2nnc(C(=O)N3CCNC(C)(C)C3)c2C)cc1	12	-2.01
Cn1cc(-c2cccc(NC(=O)N3C[C@@H]4CCS(=O)(=O)[C@@H]4C3)n2)cn1	35	-3.98
COc1ccccc1[C@H]1CCC[C@@H](C)N1CC(O)CN1CCCC1=O (stereo partly drawn)	-9	1.35
O=C(NCC(=O)N1CCCC1)c1ccccn1	8	-1.1
Cc1cc(C)nc(N2CCN(c3cccs3)CC2)n1	-12	1.19
Cn1cnnc1N1CCN(C(=O)NCc2ccncc2OCC(F)F)CC1	0	0
Cc1nc(C(=O)N2CCNC[C@H]2c2ccncc2)c(C)s1	-10	1.06
